From the supplement of paper PMC10369915 come the findings set out here.

Some of the results follow. Cut-off read from the data, not from the text of the source: active = 3.2 or more and inactive = the rest. Only a few entries rise above the background.
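Note: displayed peptides selected on beads carrying the immobilized SH2 domain, with library peptides lacking any tyrosine serving as negative controls.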

One experiment concerns the target SHP2 C-SH2 domain E139D. Description: enrichment score (SH2-bound / input frequency) (ratio); bacterial display of known human phosphotyrosine sites (pTyr-Var adds point mutants) read by sequencing; higher = stronger binding; tyrosines were phosphorylated by kinases first. Conditions: peptide library: pTyr-Var.
In the case of AIMSFYATLID [RYR1_Y2426_A2428T], the enrichment score is inactive: 1.46.
Regarding YARECYSALPQ [SARS2_Y52_G51C], the enrichment score was inactive: 0.614.
For DDLEVYLKHPL [SACS_Y3477_L3481P], the enrichment score was inactive: 1.32.
Same read-out and setting: for LMFPDYLPCSV [SAG_Y129_T125M] the value was inactive: 1.08; for LGSNTYPFLLM [SAG_Y120_T125M], inactive: 0.719; for QKMFDYLKEKK [RYR2_Y3780_L3778F], inactive: 1.24.
On the same count and under the same terms, for TVSTGYTQPQP [SARG_Y259_R258G] the value was inactive: 0.58; for QRRLVYFEGGA [RYR1_Y245_YF], inactive: 0.87; for FFHKFYNKSED [RYR1_Y4864_R4861H], inactive: 0.956.
Regarding FQHLRYIKQLG [SAMHD1_Y146_R143H], the enrichment score is inactive: 0.883.
Still for that read-out and setting: next, QCTSDYPEHVC [SART3_Y541]: inactive: 0.894.
FARECYSALPQ [SARS2_Y52_G51C_YF]: the enrichment score is inactive: 0.737.
On to IIRRLYLKWHP [SACS_Y4333], for which the enrichment score is inactive: 0.56.
On the same count and under the same terms, next, FQRLQYIKQLG [SAMHD1_Y146_R145Q]: inactive: 0.663; AVDDKYSRREE [SART1_Y685_I681V]: inactive: 0.531; QKMLDYLKEKK [RYR2_Y3780]: inactive: 1.25.
Same read-out and setting: next, IIAVHYVLEES [RYR2_Y4559]: inactive: 2.71; FQRLRYIKQLG [SAMHD1_Y146]: inactive: 0.603; TVSTRYTQPQP [SARG_Y259]: inactive: 0.919.

In the next experiment the target is SHP2 C-SH2 domain wild-type. Described as above. The following applies: peptide library: pTyr-Var.
Take AIMSFYATLID [RYR1_Y2426_A2428T]: the enrichment score was inactive: 1.26.
As for YARECYSALPQ [SARS2_Y52_G51C], the enrichment score is inactive: 0.798.
The same measure, in the same setting: for DDLEVYLKHPL [SACS_Y3477_L3481P] the value was inactive: 1.13; for LMFPDYLPCSV [SAG_Y129_T125M], inactive: 1.09; for LGSNTYPFLLM [SAG_Y120_T125M], inactive: 1.32.
On to QKMFDYLKEKK [RYR2_Y3780_L3778F], for which the enrichment score was inactive: 1.26.
TVSTGYTQPQP [SARG_Y259_R258G]: the enrichment score is inactive: 0.601.
As for QRRLVYFEGGA [RYR1_Y245_YF], the enrichment score is inactive: 0.837.
The same measure, in the same setting: for FFHKFYNKSED [RYR1_Y4864_R4861H] the value was inactive: 0.826; for FQHLRYIKQLG [SAMHD1_Y146_R143H], inactive: 0.897.
Turning to QCTSDYPEHVC [SART3_Y541], the enrichment score was inactive: 0.63.
Still for that read-out and setting: next, FARECYSALPQ [SARS2_Y52_G51C_YF]: inactive: 0.828.
As to IIRRLYLKWHP [SACS_Y4333], the enrichment score is inactive: 0.359.
For the molecule FQRLQYIKQLG [SAMHD1_Y146_R145Q], the enrichment score is inactive: 0.731.
Turning to AVDDKYSRREE [SART1_Y685_I681V], the enrichment score was inactive: 0.646.
On the same count and under the same terms, next, QKMLDYLKEKK [RYR2_Y3780]: inactive: 0.934.
For IIAVHYVLEES [RYR2_Y4559], the enrichment score was inactive: 2.08.
Regarding FQRLRYIKQLG [SAMHD1_Y146], the enrichment score was inactive: 0.907.
In the case of TVSTRYTQPQP [SARG_Y259], the enrichment score is inactive: 0.772.

A further experiment has as its target SHP2 N-SH2 domain L43F. Described as above. Conditions: peptide library: pTyr-Var.
AIMSFYATLID [RYR1_Y2426_A2428T]: the enrichment score was inactive: 1.11.
On the same count and under the same terms, next, YARECYSALPQ [SARS2_Y52_G51C]: inactive: 0.77.
In the case of DDLEVYLKHPL [SACS_Y3477_L3481P], the enrichment score was inactive: 1.35.
Still for that read-out and setting: for LMFPDYLPCSV [SAG_Y129_T125M] the value was inactive: 0.895.
Consider LGSNTYPFLLM [SAG_Y120_T125M], for which the enrichment score is inactive: 1.27.
Still for that read-out and setting: for QKMFDYLKEKK [RYR2_Y3780_L3778F] the value was inactive: 1.05; for TVSTGYTQPQP [SARG_Y259_R258G], inactive: 0.838.
The same measure, in the same setting: next, QRRLVYFEGGA [RYR1_Y245_YF]: inactive: 0.93; FFHKFYNKSED [RYR1_Y4864_R4861H]: inactive: 0.892.
Still for that read-out and setting: next, FQHLRYIKQLG [SAMHD1_Y146_R143H]: inactive: 0.726; QCTSDYPEHVC [SART3_Y541]: inactive: 0.533; FARECYSALPQ [SARS2_Y52_G51C_YF]: inactive: 0.626.
For the molecule IIRRLYLKWHP [SACS_Y4333], the enrichment score is inactive: 0.405.
The same measure, in the same setting: for FQRLQYIKQLG [SAMHD1_Y146_R145Q] the value was inactive: 0.71; for AVDDKYSRREE [SART1_Y685_I681V], inactive: 0.813; for QKMLDYLKEKK [RYR2_Y3780], inactive: 1.05.
The same measure, in the same setting: next, IIAVHYVLEES [RYR2_Y4559]: active: 4.07; FQRLRYIKQLG [SAMHD1_Y146]: inactive: 0.488; TVSTRYTQPQP [SARG_Y259]: inactive: 0.836.

In a further experiment the target is SHP2 N-SH2 domain T42A. The experiment is described as above. Conditions: peptide library: pTyr-Var.
As for AIMSFYATLID [RYR1_Y2426_A2428T], the enrichment score was inactive: 1.34.
Still for that read-out and setting: next, YARECYSALPQ [SARS2_Y52_G51C]: inactive: 0.644; DDLEVYLKHPL [SACS_Y3477_L3481P]: inactive: 0.942; LMFPDYLPCSV [SAG_Y129_T125M]: inactive: 0.993.
On the same count and under the same terms, for LGSNTYPFLLM [SAG_Y120_T125M] the value was inactive: 0.999.
Consider QKMFDYLKEKK [RYR2_Y3780_L3778F], for which the enrichment score was inactive: 1.32.
With TVSTGYTQPQP [SARG_Y259_R258G], the enrichment score is inactive: 0.612.
Take QRRLVYFEGGA [RYR1_Y245_YF]: the enrichment score is inactive: 0.769.
The same measure, in the same setting: next, FFHKFYNKSED [RYR1_Y4864_R4861H]: inactive: 0.634; FQHLRYIKQLG [SAMHD1_Y146_R143H]: inactive: 0.771.
The same measure, in the same setting: for QCTSDYPEHVC [SART3_Y541] the value was inactive: 0.608; for FARECYSALPQ [SARS2_Y52_G51C_YF], inactive: 0.638; for IIRRLYLKWHP [SACS_Y4333], inactive: 0.361.
The same measure, in the same setting: next, FQRLQYIKQLG [SAMHD1_Y146_R145Q]: inactive: 0.561; AVDDKYSRREE [SART1_Y685_I681V]: inactive: 0.578; QKMLDYLKEKK [RYR2_Y3780]: inactive: 1.04.
In the case of IIAVHYVLEES [RYR2_Y4559], the enrichment score was inactive: 1.96.
On the same count and under the same terms, next, FQRLRYIKQLG [SAMHD1_Y146]: inactive: 0.428.
With TVSTRYTQPQP [SARG_Y259], the enrichment score is inactive: 0.766.

The target in the next experiment is SHP2 N-SH2 domain T52S. The description is as above. Conditions: peptide library: pTyr-Var.
In the case of AIMSFYATLID [RYR1_Y2426_A2428T], the enrichment score was inactive: 1.19.
The same measure, in the same setting: for YARECYSALPQ [SARS2_Y52_G51C] the value was inactive: 0.605; for DDLEVYLKHPL [SACS_Y3477_L3481P], inactive: 1.31; for LMFPDYLPCSV [SAG_Y129_T125M], inactive: 0.794.
For LGSNTYPFLLM [SAG_Y120_T125M], the enrichment score was inactive: 1.18.
Still for that read-out and setting: for QKMFDYLKEKK [RYR2_Y3780_L3778F] the value was inactive: 1.32.
Take TVSTGYTQPQP [SARG_Y259_R258G]: the enrichment score was inactive: 0.563.
Still for that read-out and setting: next, QRRLVYFEGGA [RYR1_Y245_YF]: inactive: 0.947; FFHKFYNKSED [RYR1_Y4864_R4861H]: inactive: 0.914.
On the same count and under the same terms, next, FQHLRYIKQLG [SAMHD1_Y146_R143H]: inactive: 0.761.
Still for that read-out and setting: for QCTSDYPEHVC [SART3_Y541] the value was inactive: 0.543; for FARECYSALPQ [SARS2_Y52_G51C_YF], inactive: 0.637; for IIRRLYLKWHP [SACS_Y4333], inactive: 0.391.
For the molecule FQRLQYIKQLG [SAMHD1_Y146_R145Q], the enrichment score was inactive: 0.695.
Same read-out and setting: next, AVDDKYSRREE [SART1_Y685_I681V]: inactive: 0.544; QKMLDYLKEKK [RYR2_Y3780]: inactive: 1.34.
With IIAVHYVLEES [RYR2_Y4559], the enrichment score is active: 3.76.
Still for that read-out and setting: for FQRLRYIKQLG [SAMHD1_Y146] the value was inactive: 0.703; for TVSTRYTQPQP [SARG_Y259], inactive: 0.844.

The target of a further experiment is SHP2 N-SH2 domain wild-type. Described as above. Conditions: peptide library: pTyr-Var.
For AIMSFYATLID [RYR1_Y2426_A2428T], the enrichment score is inactive: 1.16.
Regarding YARECYSALPQ [SARS2_Y52_G51C], the enrichment score is inactive: 0.79.
Still for that read-out and setting: next, DDLEVYLKHPL [SACS_Y3477_L3481P]: inactive: 1.31; LMFPDYLPCSV [SAG_Y129_T125M]: inactive: 1.12; LGSNTYPFLLM [SAG_Y120_T125M]: inactive: 0.818.
Regarding QKMFDYLKEKK [RYR2_Y3780_L3778F], the enrichment score was inactive: 1.61.
The same measure, in the same setting: next, TVSTGYTQPQP [SARG_Y259_R258G]: inactive: 0.619; QRRLVYFEGGA [RYR1_Y245_YF]: inactive: 0.872; FFHKFYNKSED [RYR1_Y4864_R4861H]: inactive: 0.917.
Turning to FQHLRYIKQLG [SAMHD1_Y146_R143H], the enrichment score was inactive: 1.12.
On the same count and under the same terms, for QCTSDYPEHVC [SART3_Y541] the value was inactive: 0.656; for FARECYSALPQ [SARS2_Y52_G51C_YF], inactive: 0.884; for IIRRLYLKWHP [SACS_Y4333], inactive: 0.456.
Same read-out and setting: for FQRLQYIKQLG [SAMHD1_Y146_R145Q] the value was inactive: 0.918.
Still for that read-out and setting: next, AVDDKYSRREE [SART1_Y685_I681V]: inactive: 0.686; QKMLDYLKEKK [RYR2_Y3780]: inactive: 1.13; IIAVHYVLEES [RYR2_Y4559]: inactive: 2.47.
As to FQRLRYIKQLG [SAMHD1_Y146], the enrichment score was inactive: 0.824.
Take TVSTRYTQPQP [SARG_Y259]: the enrichment score was inactive: 0.972.
